The other results are listed elsewhere or left out. The full chains were built here from the parent and the listed change. Values near 0.05 are background.
B1: TEV protease; numbered along this chain (parent)
chain: MGESLFKGPRDYNPISSSICHLTNESDGHTTSLYGIGFGPFIITNKHLFRRNNGTLVVQSLHGVFKVKDTTTLQQHLVDGRDMIIIRMPKDFPPFPQKLKFREPQREERICLVTTNFQTKSMSSMVSDTSCTFPSGDGIFWKHWIQTKDGQCGSPLVSTRDGFIVGIHSASNFTNTNNYFTSVPKNFMELLTNQEAQQWVSGWRLNADSVLWGGHKVFMVKPEEPFQPVKEATQL

Variants of: B1
Assay: raw area under fraction-flipped curve 0-4 h after induction (AUC4h, not background-subtracted), DNA-recorder readout of cleavage of the substrate (dimensionless); higher = more cleavage of the substrate by the protease variant
Conditions: temperature: 34 °C; time window: 0-4 h after rhamnose induction
Procedure: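 In vivo DNA recorder in E. coli TOP10(DE3) ΔrhaA at 34 °C. Each TEVp single-site mutant (parent TEVp 0) is paired with a single-site variant of the 7-mer TEVs (canonical ENLYFQ|S). The substrate sits between flexible linkers in a Bxb1-sfGFP-TEVs-SsrA fusion, so cleavage stabilises Bxb1 and speeds flipping of a recombination array, read by NGS. The value is the raw area under the fraction-flipped curve over 0-4 h after rhamnose induction (AUC4h), with ≥20 reads per time point. It is not background-subtracted; inactive controls average about 0.047.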
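Further: Bxb1 expression induced with 0.2% (w/v) L-rhamnose at OD600 near 0.5, cultures sampled hourly, flipped fraction per protease–substrate barcode pair counted by paired-end Illumina sequencing.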

Row | Variant | area with substrate ENLYFAS | area with substrate ENLYFCS | area with substrate ENLYFDS | area with substrate ENLYFFS | area with substrate ENLYFKS | area with substrate ENLYFMS | area with substrate ENLYFPS | area with substrate ENLYFSS | area with substrate ENLYFTS | area with substrate ENLYFVS | area with substrate ENLYFWS | area with substrate ENLYFES | area with substrate ENLYFIS | area with substrate ENLYFNS | area with substrate ENLYFRS | area with substrate ENLYFYS | area with substrate ENLYFLS | area with substrate ENLYFHS | area with substrate ENLYFGS
1 | E231Y | 0.0455 | 0.0472 | 0.057 | 0.0667 | 0.0698 | 0.0668 | 0.0563 | 0.0619 | 0.0662 | 0.0895 | 0.0603 | – | – | – | – | – | – | – | –
2 | F187S | 0.0445 | 0.0592 | – | 0.0632 | 0.0595 | 0.0544 | 0.0597 | 0.0533 | 0.0584 | 0.0555 | – | 0.0556 | 0.0503 | 0.059 | 0.0376 | 0.0788 | – | – | –
3 | A207F | 0.0536 | 0.0592 | – | – | 0.0525 | 0.0631 | 0.0457 | – | 0.0559 | 0.0586 | – | 0.0609 | 0.057 | – | 0.0493 | 0.0563 | 0.057 | – | –
4 | I86M | 0.0489 | 0.0703 | 0.0388 | 0.0622 | 0.11 | 0.0542 | – | – | – | – | – | 0.0676 | 0.0477 | – | 0.0572 | 0.0446 | 0.0389 | – | –
5 | F117Y | 0.0716 | 0.0661 | – | 0.0587 | 0.0576 | – | 0.06 | 0.0583 | 0.0661 | 0.0584 | – | – | – | 0.058 | – | – | – | 0.0691 | –
6 | F49T | 0.057 | 0.0405 | 0.0632 | 0.07 | 0.054 | 0.0579 | 0.0733 | – | – | 0.0519 | 0.0487 | 0.051 | 0.0524 | 0.0623 | – | 0.0579 | – | – | 0.0533
7 | T30H | 0.0462 | 0.0578 | 0.0588 | 0.0731 | 0.0753 | 0.0688 | 0.0586 | 0.0499 | 0.0582 | 0.0623 | 0.0494 | 0.0594 | 0.0586 | 0.0528 | 0.0583 | 0.0625 | 0.0588 | 0.0572 | 0.0519
8 | T30M | 0.0498 | – | – | 0.063 | 0.0615 | 0.0462 | – | 0.0583 | – | 0.0653 | – | 0.0639 | 0.0613 | 0.0514 | – | – | – | 0.0598 | –
9 | S127R | 0.0342 | 0.0534 | – | – | 0.0417 | – | – | 0.0512 | 0.0517 | – | 0.0552 | 0.0746 | 0.0595 | 0.0762 | – | 0.0606 | 0.0609 | 0.0537 | –
10 | Q234P | 0.0586 | – | – | 0.0827 | 0.0628 | 0.0781 | 0.0567 | – | 0.0552 | 0.0546 | – | 0.0572 | 0.0519 | 0.0644 | 0.067 | – | – | 0.061 | 0.057
11 | K90D | 0.0687 | – | 0.0639 | 0.0829 | – | – | 0.0671 | – | – | – | – | – | 0.0544 | – | – | – | – | 0.06 | –
12 | V217M | 0.0583 | 0.0565 | – | 0.0795 | 0.0704 | 0.0538 | 0.0571 | 0.0623 | 0.0476 | – | 0.0559 | 0.0692 | 0.0595 | – | 0.064 | – | – | – | 0.0538
13 | V220F | 0.0625 | 0.0398 | 0.0641 | 0.0602 | – | 0.067 | 0.0606 | – | 0.06 | 0.0565 | – | 0.0593 | 0.057 | 0.0575 | 0.0682 | 0.0566 | – | 0.0587 | –
14 | H47T | 0.0597 | 0.0697 | – | 0.0662 | 0.0551 | – | – | – | 0.0556 | 0.0512 | – | 0.0615 | 0.0696 | 0.0611 | 0.0515 | 0.0715 | 0.0394 | 0.0658 | 0.0817
15 | W212T | 0.068 | 0.0664 | – | 0.0619 | – | 0.0314 | 0.0683 | 0.0711 | 0.0561 | 0.0438 | – | 0.0718 | 0.0579 | – | – | 0.0581 | 0.0576 | – | 0.0603
16 | V57P | 0.0415 | – | – | – | – | 0.0374 | 0.0402 | 0.038 | – | 0.0301 | 0.0734 | 0.0505 | 0.0475 | 0.0815 | – | 0.0372 | – | – | –
17 | F101A | 0.0605 | – | – | – | – | – | 0.0329 | – | – | – | – | – | – | – | 0.0271 | – | – | – | –
18 | P96D | 0.0583 | – | – | – | 0.0751 | 0.0562 | 0.0515 | – | 0.0549 | 0.0525 | – | 0.0619 | 0.048 | – | 0.053 | 0.0575 | 0.0568 | – | –
19 | Q197L | 0.0576 | – | – | 0.0718 | 0.0358 | 0.0651 | 0.0706 | – | 0.0678 | – | – | 0.0531 | 0.0536 | 0.0416 | 0.0607 | 0.073 | – | 0.0644 | –
20 | S135T | 0.0513 | – | 0.0631 | 0.0856 | 0.0585 | 0.0557 | 0.0617 | 0.0615 | – | 0.0446 | 0.0627 | – | 0.0599 | – | – | 0.0563 | 0.0676 | 0.056 | –
21 | D149W | 0.0621 | 0.0657 | – | – | 0.0585 | 0.0532 | 0.0492 | 0.0786 | 0.0417 | – | 0.0644 | 0.0346 | 0.0613 | 0.0507 | 0.0522 | – | – | 0.0804 | –
22 | L190I | 0.0519 | – | – | 0.0739 | 0.055 | 0.0593 | 0.0429 | – | – | – | – | – | 0.0521 | – | – | – | – | – | –
23 | A170P | 0.0643 | – | 0.052 | 0.0579 | – | – | 0.0864 | 0.0624 | – | – | – | – | 0.0396 | – | 0.0681 | – | – | – | –
24 | S158K | 0.0612 | 0.0437 | – | 0.0453 | 0.0426 | 0.0593 | 0.0296 | – | 0.0419 | 0.0296 | 0.0712 | 0.0545 | 0.0612 | 0.0573 | 0.0286 | 0.0453 | – | – | 0.0545
25 | T233F | 0.0432 | 0.0467 | – | 0.0813 | – | 0.109 | 0.0648 | – | 0.0431 | 0.0566 | – | 0.0621 | 0.0614 | 0.0434 | 0.0477 | – | 0.0765 | 0.0381 | –
26 | G150M | 0.0601 | – | – | 0.0722 | 0.0623 | 0.0583 | 0.0531 | – | 0.0596 | 0.0525 | – | – | 0.0633 | 0.0561 | – | – | 0.0732 | – | –
27 | P94H | 0.0573 | 0.0623 | – | – | – | 0.0589 | 0.0617 | – | – | – | – | 0.0681 | 0.0544 | – | 0.0559 | – | – | 0.0643 | –
28 | T70C | 0.0694 | – | – | 0.0662 | 0.0575 | 0.0564 | 0.0533 | 0.0612 | 0.0525 | – | 0.0634 | 0.056 | 0.071 | 0.0576 | 0.0607 | 0.0612 | – | – | 0.0674
29 | T71S | 0.0478 | 0.0461 | – | – | 0.0507 | 0.0615 | 0.0515 | – | 0.057 | – | – | 0.0511 | 0.0621 | 0.0434 | – | 0.0653 | 0.0579 | – | –
30 | V210W | 0.0618 | – | – | 0.07 | 0.0557 | – | 0.0536 | – | – | 0.0642 | – | – | 0.0611 | 0.0382 | 0.0604 | – | 0.0816 | – | –
